These results are taken from the supplement of paper PMC7826260.

The other results are listed elsewhere or left out. Cleavage of a single-stranded DNA pool by Rep nickase domains was read by sequencing (3 µM enzyme, 1 h, 37 °C); shown is the middle of each 90-letter strand. The score is log2 (uncut reads / reads without enzyme); uncut sequences lie near 0, cut ones below; no hit call is given. The scaling is to total reads; where an enzyme cuts many sequences, the uncut ones exceed 0.

This test has as its system T1, Rep nickase domain of tomato golden mosaic virus.
T1 sequence (residues 1-124 of Rep, tag left off): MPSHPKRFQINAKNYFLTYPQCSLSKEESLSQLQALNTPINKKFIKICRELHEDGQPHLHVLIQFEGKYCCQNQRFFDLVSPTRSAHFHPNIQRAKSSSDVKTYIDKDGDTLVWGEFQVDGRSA
Nature of the test: uncleaved DNA left, log2 of reads against the no-enzyme library (log2 ratio); higher = less cleavage (more negative = more Rep cleavage of the k-mer); sequences stand for … in CTCGTCCG…ACCGGAGA
The method, then: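 A pool of 90-nt single-stranded DNAs with seven random bases just before the constant AC of the nick site (name = the seven bases) was cut by 3 µM recombinant His6-SUMO-tagged Rep nickase domain (300 nM DNA, 50 mM HEPES pH 8.0, 50 mM NaCl, 1 mM MnCl2, 1 h, 37 °C, three replicates). Uncut DNA was amplified and sequenced.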
Consider CTTTGTA, for which the “uncleaved DNA left (log2)” value is -0.282.

As for CTGACCT, the “uncleaved DNA left (log2)” value was -0.0873.

Regarding TTGCGTT, the “uncleaved DNA left (log2)” value is -0.0729.

Regarding CAGGGCG, the “uncleaved DNA left (log2)” value was 0.0907.

Take TTACTAG: the “uncleaved DNA left (log2)” value is -0.199.

Take GTTGCTG: the “uncleaved DNA left (log2)” value was -0.0148.

In the case of GATAGAA, the “uncleaved DNA left (log2)” value is 0.0573.

As for TGGACCT, the “uncleaved DNA left (log2)” value came to 0.15.

GAAAATG: the “uncleaved DNA left (log2)” value is 0.069.

For the sequence AAGAGTT, the “uncleaved DNA left (log2)” value amounted to 0.152.

As for CATTCTC, the “uncleaved DNA left (log2)” value is -0.134.

In the case of GCCGCTA, the “uncleaved DNA left (log2)” value turned out to be 0.056.

In the case of TGTGCCC, the “uncleaved DNA left (log2)” value was -0.0126.

Consider CGTTACA, for which the “uncleaved DNA left (log2)” value was found to be 0.0158.

As to GAGTTTT, the “uncleaved DNA left (log2)” value is -0.0527.

ACGGGTC: the “uncleaved DNA left (log2)” value is -0.123.

As to CTGGCGG, the “uncleaved DNA left (log2)” value was found to be 0.193.

As for CAAGACA, the “uncleaved DNA left (log2)” value came to 0.00812.

With CGTTCAC, the “uncleaved DNA left (log2)” value was -0.0852.

Take TTCGTCG: the “uncleaved DNA left (log2)” value was -0.102.

For the sequence TTGTAAA, the “uncleaved DNA left (log2)” value stood at 0.075.

For the sequence GCGCCTG, the “uncleaved DNA left (log2)” value was -0.00615.

Turning to CCCAAAA, the “uncleaved DNA left (log2)” value worked out at 0.129.

As for CGGGCGA, the “uncleaved DNA left (log2)” value was 0.0676.

Take GACCCCC: the “uncleaved DNA left (log2)” value is -0.283.

As for GTGACCG, the “uncleaved DNA left (log2)” value is -0.000471.

For GCCAGGA, the “uncleaved DNA left (log2)” value came to 0.00172.

For CCATCCC, the “uncleaved DNA left (log2)” value is -0.219.

On to AGGCAGC, for which the “uncleaved DNA left (log2)” value came out at 0.00645.

CAGTAGC: the “uncleaved DNA left (log2)” value was -0.0412.

In the case of TCTAACT, the “uncleaved DNA left (log2)” value was -0.182.

For the sequence CTCCCCA, the “uncleaved DNA left (log2)” value came out at 0.0104.

Regarding AGGCTAT, the “uncleaved DNA left (log2)” value was found to be 0.00381.

For the sequence CGATAAA, the “uncleaved DNA left (log2)” value turned out to be 0.12.

Take GGTGACA: the “uncleaved DNA left (log2)” value is -0.113.

Take GTGAACC: the “uncleaved DNA left (log2)” value came to 0.183.

Consider AGGATAA, for which the “uncleaved DNA left (log2)” value came to 0.143.

For TTGTTGA, the “uncleaved DNA left (log2)” value is -0.0452.

For CTGACTA, the “uncleaved DNA left (log2)” value was -0.0382.

On to GGATAAC, for which the “uncleaved DNA left (log2)” value was 0.189.
